PubChem BioAssay AID504332 (National Center for Advancing Translational Sciences (NCATS), 2011)
In all, about 350,000 compounds went through this assay and about 31,000 (8.9%) were called active. Inconclusive results, whose numbers are uncertain, are shown with a selection of clear calls. Calls come from the whole dose curve; as a rule, active = well fitted inhibition curve with a large enough effect; inconclusive = small, poorly fitted or top-dose-only effect; inactive = no such curve, though single readings can be large or run the other way. Potencies of inconclusive entries are doubtful fits and often do not repeat.

Each compound was assayed against Histone-lysine N-methyltransferase EHMT2 (Homo sapiens) (UniProt Q96KQ7) (assay: qHTS Assay for Inhibitors of Histone Lysine Methyltransferase G9a). Conditions: G9a H3K9 monomethylation, AlphaScreen, 2 h; activity, negative = inhibition: at 59 µM (top of the series) unless noted.
Summary of the method: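 Quantitative HTS format: methyltransferase activity on a biotin-tagged H3K9 peptide is measured by AlphaScreen, using a rabbit anti-monomethyl-H3K9 antibody with streptavidin donor and anti-IgG acceptor beads. Final levels are 20 nM enzyme, 500 nM peptide, 20 uM SAM; 2 h RT.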
% is set by controls: 0 for no effect and ±100 for the full control effect; potency is the fitted concentration of half-maximal effect; tags give direction and shape of the fitted curve.
Note: nearly all actives have a fitted effect of over 75% in size.

Sequence of UniProt Q96KQ7 (Q96KQ7 whole entry, looked up): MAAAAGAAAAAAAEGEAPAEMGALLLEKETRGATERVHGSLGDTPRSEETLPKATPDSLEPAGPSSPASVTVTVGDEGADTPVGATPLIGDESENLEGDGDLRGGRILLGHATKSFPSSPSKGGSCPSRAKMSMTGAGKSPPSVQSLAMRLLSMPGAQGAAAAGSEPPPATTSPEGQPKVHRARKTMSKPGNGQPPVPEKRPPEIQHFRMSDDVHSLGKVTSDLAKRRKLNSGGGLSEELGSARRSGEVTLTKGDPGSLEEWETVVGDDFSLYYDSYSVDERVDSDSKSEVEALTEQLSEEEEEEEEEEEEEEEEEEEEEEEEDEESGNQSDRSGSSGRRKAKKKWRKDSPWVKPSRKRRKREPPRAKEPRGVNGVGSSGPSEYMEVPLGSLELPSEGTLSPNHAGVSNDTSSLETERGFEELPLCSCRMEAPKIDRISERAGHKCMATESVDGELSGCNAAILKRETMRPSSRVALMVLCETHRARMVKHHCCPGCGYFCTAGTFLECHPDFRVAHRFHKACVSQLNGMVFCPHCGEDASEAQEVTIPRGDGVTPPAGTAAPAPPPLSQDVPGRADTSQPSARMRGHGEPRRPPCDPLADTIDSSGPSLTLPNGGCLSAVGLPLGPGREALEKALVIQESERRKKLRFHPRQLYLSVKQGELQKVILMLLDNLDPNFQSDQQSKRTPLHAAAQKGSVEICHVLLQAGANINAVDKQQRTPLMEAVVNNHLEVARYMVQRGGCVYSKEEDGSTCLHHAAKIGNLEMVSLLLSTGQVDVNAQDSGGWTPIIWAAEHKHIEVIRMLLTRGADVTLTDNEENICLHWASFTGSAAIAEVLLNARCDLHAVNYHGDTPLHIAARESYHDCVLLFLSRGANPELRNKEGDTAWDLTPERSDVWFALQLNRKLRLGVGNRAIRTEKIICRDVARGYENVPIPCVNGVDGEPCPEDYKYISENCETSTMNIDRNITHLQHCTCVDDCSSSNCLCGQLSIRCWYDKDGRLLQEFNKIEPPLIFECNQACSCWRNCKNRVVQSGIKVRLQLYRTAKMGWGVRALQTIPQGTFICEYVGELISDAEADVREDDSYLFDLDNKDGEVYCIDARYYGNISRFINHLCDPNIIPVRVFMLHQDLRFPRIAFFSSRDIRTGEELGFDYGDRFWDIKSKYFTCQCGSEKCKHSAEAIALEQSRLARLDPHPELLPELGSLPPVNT

Q: How did the Potency turn out when `COc1ccc(C(c2c(NC(=O)c3ccco3)sc(C)c2C)N2CCOCC2)cc1` (stereo not drawn) was run?
A: Its Potency is inconclusive: 89.1 µM [inhibitor, single point].

Q: For `COC(=O)C1CCN(C(=O)COC(=O)CNS(=O)(=O)c2ccc(SC)c([N+](=O)[O-])c2)CC1`, which activity, negative = inhibition is on record?
A: Its activity, negative = inhibition is inactive: 7.28% [at 0.501 µM].

Q: With `Cc1nc(C)c(C(=O)OCC(=O)NCCc2ccc(F)cc2)s1` as the compound, how does the Potency read?
A: Its Potency is active: 39.8 µM.

Q: With `COCCn1c(SCC(=O)Nc2cccc(OC)c2)nnc1-c1ccc(Cl)cc1` as the compound, how does the Potency read?
A: The Potency was inconclusive: 22.4 µM [inhibitor, partial curve, poor fit].

Q: Which Potency does the source give for `O=C(NCCc1ccc2c(c1)OCCO2)c1cc(F)cc(F)c1` here?
A: Its Potency is inconclusive: 50.1 µM [inhibitor, partial curve, poor fit].

Q: For `CN1CCN(c2ccc(NC(=S)NC(=O)c3cccc4ccccc34)cc2)CC1`, which Potency is on record?
A: The Potency was active: 22.4 µM.

Q: With `O=C(CSc1nnc(CN2CCOCC2)n1-c1ccc(Cl)cc1)Nc1ccc2c(c1)OCO2` as the compound, how does the Potency read?
A: Its Potency is inconclusive: 28.2 µM [inhibitor, single point].

Q: `O=C(CC1C(=O)NCCN1Cc1ccccc1C(F)(F)F)NCCN1CCOCC1` (stereo not drawn) was tested. Which Potency did it give?
A: The Potency was active: 44.7 µM.

Q: How did the Potency turn out when `CNC(=O)c1c[nH]c2ccc(S(=O)(=O)Nc3ccccc3F)cc2c1=O` was run?
A: The Potency was inconclusive: 89.1 µM [inhibitor, single point].

Q: For `CCOC(=O)C1=C(C)OC(N)=C(C#N)C1c1cc(F)ccc1F` (stereo not drawn), which Potency is on record?
A: The Potency was inconclusive: 89.1 µM [inhibitor, single point].

Q: How did the activity, negative = inhibition turn out when `C#CCOCCOCCOCCNc1nc(N2CCN(C(=O)[C@H]([C@@H](C)O)n3cc(CCCCN)nn3)CC2)nc(N2CCN(C(=O)[C@H](CCCCN)n3cc(CCCC)nn3)CC2)n1` was run?
A: Its activity, negative = inhibition is inactive: 18.9% [at 2.33 µM].

Q: With `Cc1ccc(-c2cc(C(F)(F)F)c(C#N)c(SCCC#N)n2)o1` as the compound, how does the activity, negative = inhibition read?
A: The activity, negative = inhibition was inconclusive: -60.2% [inhibitor].

Q: How did the Potency turn out when `O=C(CNC1CCCCC1)Nc1ccc([N+](=O)[O-])cc1C(=O)Nc1ccccc1F` was run?
A: The Potency was inconclusive: 50.1 µM [inhibitor, partial curve, poor fit].

Q: For `Cc1cc(NC(=O)CCC(=O)N(Cc2ccco2)C(C(=O)NC2CCCC2)c2ccccc2C)no1` (stereo not drawn), which Potency is on record?
A: The Potency was “inactive”.

Q: With `COc1ccc(C2/C(=C(/O)c3ccc4c(c3)CC(C)O4)C(=O)C(=O)N2CCCN2CCOCC2)cc1OC` (stereo not drawn) as the compound, how does the Potency read?
A: The Potency was inconclusive: 89.1 µM [inhibitor, single point].

Q: `COc1cc2[nH]c(=S)nc(NCCc3ccc(S(N)(=O)=O)cc3)c2cc1OC` was tested. Which Potency did it give?
A: The Potency was active: 12.6 µM.

Q: With `COc1ccc(C(=O)N2CC(=O)Nc3ccc(C)cc3C2c2ccc(F)cc2)c(OC)c1` (stereo not drawn) as the compound, how does the Potency read?
A: The Potency was “inactive”.

Q: For `CC(C(=O)Nc1ccc(S(=O)(=O)N2CCOCC2)cc1)N1C(=O)C2CC=CCC2C1=O` (stereo not drawn), which Potency is on record?
A: Its Potency is inconclusive: 56.2 µM [inhibitor, partial curve, poor fit].

Q: How did the Potency turn out when `Cc1c(Cc2ccccc2)sc(NC(=O)c2ccco2)c1C(N)=O` was run?
A: Its Potency is “inactive”.

Q: With `CCCCCn1c(NCc2ccco2)nc2ccccc21` as the compound, how does the Potency read?
A: Its Potency is inconclusive: 89.1 µM [inhibitor, partial curve, poor fit].

Q: How did the Potency turn out when `Fc1cccc(/C=N/Nc2ncnc3nc[nH]c23)c1` was run?
A: Its Potency is inconclusive: 35.5 µM [inhibitor, partial curve, poor fit].

Q: For `COc1ccc(CCNCc2c(-c3ccccc3)n(C)c3ccccc23)cc1`, which Potency is on record?
A: Its Potency is inconclusive: 0.398 µM [inhibitor, partial curve, poor fit].

Q: With `O=C(Nc1nc(=O)c2ccccc2s1)c1ccccc1` as the compound, how does the Potency read?
A: The Potency was inconclusive: 2.24 µM [inhibitor, partial curve, poor fit].

Q: Which Potency does the source give for `CCCCOc1ccc(/C=C/C(=O)OCC(=O)c2c(N)n(C)c(=O)n(C)c2=O)cc1OCC` here?
A: The Potency was inconclusive: 15.8 µM [inhibitor, partial curve, poor fit].

Q: With `COc1ccccc1NC(=O)c1nnn(-c2ccc(F)cc2)c1C` as the compound, how does the Potency read?
A: Its Potency is “inactive”.

Q: For `COc1ccc(Cl)cc1NC(=O)CN1c2ccccc2CC1C` (stereo not drawn), which Potency is on record?
A: The Potency was inconclusive: 39.8 µM [inhibitor, partial curve].

Q: With `COc1cccc(-c2nc(CS(=O)(=O)CC(=O)N3CCN(C4CCCCC4)CC3)c(C)o2)c1` as the compound, how does the Potency read?
A: Its Potency is inconclusive: 11.2 µM [inhibitor, partial curve].

Q: `CCOC(=O)CCCCC(=O)c1[nH]c(=O)[nH]c1CSCCO` was tested. Which Potency did it give?
A: The Potency was inconclusive: 50.1 µM [inhibitor, partial curve, poor fit].

Q: For `O=C(Nc1cccc(Br)c1)c1ccn[nH]1`, which Potency is on record?
A: The Potency was “inactive”.

Q: How did the Potency turn out when `O=[N+]([O-])c1ccc(O)c(/C=N/Nc2ccccn2)c1` was run?
A: Its Potency is “inactive”.

Q: `COc1ccc(OCC(=O)N/N=C/c2cccn2-c2cccc(C(=O)O)c2)cc1` was tested. Which Potency did it give?
A: Its Potency is active: 35.5 µM.

Q: Which activity, negative = inhibition does the source give for `Brc1ccc(/C=N/N2CCN(C3c4ccccc4-c4ccccc43)CC2)s1` here?
A: The activity, negative = inhibition was inconclusive: -56.8% [inhibitor].

Q: `Cc1ccccc1-n1cnc2cc(NCc3cccs3)ccc21` was tested. Which Potency did it give?
A: The Potency was inconclusive: 79.4 µM [inhibitor, partial curve, poor fit].

Q: With `O=C(O)c1csc(Cc2ccccc2)n1` as the compound, how does the Potency read?
A: Its Potency is inconclusive: 44.7 µM [inhibitor, partial curve, poor fit].

Q: How did the Potency turn out when `COc1cccc(C(=O)Cn2c(=N)n(C)c3ccccc32)c1` was run?
A: The Potency was inconclusive: 79.4 µM [inhibitor, single point].

Q: `Cc1ccccc1-n1c(SCC(=O)c2cc(C)n(C)c2C)nnc1-c1ccncc1` was tested. Which Potency did it give?
A: Its Potency is active: 70.8 µM.

Q: `O=C(NCc1ccc(Cl)cc1)C(=O)NCC(c1cccnc1)N1CCN(c2ccc(F)cc2)CC1` (stereo not drawn) was tested. Which Potency did it give?
A: Its Potency is inconclusive: 50.1 µM [inhibitor, partial curve].

Q: With `Cc1[nH]c2ccc(F)cc2c1CCN(Cc1ccncc1)C(=S)Nc1ccccc1` as the compound, how does the Potency read?
A: Its Potency is inconclusive: 70.8 µM [inhibitor, single point].

Q: For `CN(C)c1cc(NC(=O)CN2CCOCC2)c2ccccc2n1`, which Potency is on record?
A: Its Potency is inconclusive: 39.8 µM [inhibitor, single point].

Q: With `O=C(CN1C(=O)NC(Cc2ccccc2)C1=O)Nc1ccccc1OC(F)F` (stereo not drawn) as the compound, how does the Potency read?
A: Its Potency is inconclusive: 79.4 µM [inhibitor, partial curve, poor fit].

Q: Which Potency does the source give for `CC(c1ccccc1)C1CC(=O)N(CC(=O)O)C1=O` (stereo not drawn) here?
A: The Potency was inconclusive: 39.8 µM [inhibitor, full curve].

Q: `COc1cccc(=O)c2c(C)n(-c3ccc(C(=O)O)cc3)c(C)c12` was tested. Which Potency did it give?
A: Its Potency is inconclusive: 56.2 µM [inhibitor, partial curve, poor fit].

Q: How did the Potency turn out when `CC12CCC(c3c(C(=O)Nc4nccs4)nn(-c4ccccc4)c31)C2(C)C` (stereo not drawn) was run?
A: The Potency was inconclusive: 70.8 µM [inhibitor, single point].

Q: Which Potency does the source give for `COc1ccc(NC(=S)Nc2ccc(OC)cc2OC)c(OC)c1` here?
A: The Potency was active: 3.98 µM.

Q: `NC(=O)C1CCN(C(=O)CCc2nc3ccccc3c(=O)[nH]2)CC1` was tested. Which Potency did it give?
A: Its Potency is inconclusive: 8.91 µM [inhibitor, single point].

Q: For `CCN(CC)CCCn1c2c(c(SCC(=O)Nc3ccccc3Cl)nc1=O)CCC2`, which Potency is on record?
A: The Potency was inconclusive: 89.1 µM [inhibitor, partial curve, poor fit].

Q: Which Potency does the source give for `Cc1c(Cl)cccc1NC(=O)c1ccc2nc(C(C)C)oc2c1` here?
A: Its Potency is “inactive”.

Q: `CC(=S)c1c(C)cc2cc(C)ccn12` was tested. Which Potency did it give?
A: The Potency was inconclusive: 17.8 µM [inhibitor, partial curve, poor fit].

Q: How did the Potency turn out when `COc1ccc(C2C3=C(N=C4SCC(=O)N42)c2ccccc2CC3)cc1` (stereo not drawn) was run?
A: Its Potency is active: 50.1 µM.

Q: How did the Potency turn out when `CC1NC(=O)NC1CCCCCC(=O)NCCc1ccccc1` (stereo not drawn) was run?
A: The Potency was inconclusive: 2.51 µM [inhibitor, partial curve, poor fit].

Q: How did the Potency turn out when `CN(C)CCN(C(=O)C1CCCCC1)c1nc2cc3c(cc2s1)OCO3` was run?
A: Its Potency is active: 70.8 µM.

Q: Which activity, negative = inhibition does the source give for `CC(=O)Nc1ccc(S(=O)(=O)Nc2nc3ccccc3nc2Nc2ccc(N)cc2)cc1` here?
A: The activity, negative = inhibition was inconclusive: -62.2% [inhibitor].

Q: For `C/C(=N\N=C(/N)SC1CC(=O)N(c2ccc(Cl)cc2)C1=O)c1cccs1` (stereo not drawn), which Potency is on record?
A: The Potency was active: 39.8 µM.

Q: For `Cc1ccc(OC(C)C(=O)Nc2ccc(F)cc2)c([N+](=O)[O-])n1` (stereo not drawn), which Potency is on record?
A: Its Potency is inconclusive: 6.31 µM [inhibitor, single point].

Q: How did the Potency turn out when `O=C(NC(=S)Nc1cccc2c(O)cccc12)c1ccccc1[N+](=O)[O-]` was run?
A: Its Potency is inconclusive: 89.1 µM [inhibitor, single point].

Q: For `O=c1oc2ccccc2c(N2CCCC2)c1[N+](=O)[O-]`, which Potency is on record?
A: Its Potency is inconclusive: 89.1 µM [inhibitor, single point].

Q: With `COc1ccc2[nH]c(C(=O)NCCN3CCOCC3)cc2c1` as the compound, how does the Potency read?
A: Its Potency is inconclusive: 89.1 µM [inhibitor, partial curve, poor fit].

Q: `Cc1cccn2c(=O)c(C=Nc3ccc(Cl)cc3)c(NCCO)nc12` was tested. Which Potency did it give?
A: Its Potency is inconclusive: 31.6 µM [inhibitor, single point].

Q: `O=[N+]([O-])c1ccc(COc2ccc(Br)cc2CN2CCOCC2)cc1` was tested. Which Potency did it give?
A: The Potency was active: 50.1 µM.

Q: With `CCN1CCC(N(Cc2ccc(F)cc2)C(=O)Nc2cccc(C(F)(F)F)c2)CC1` as the compound, how does the Potency read?
A: The Potency was “inactive”.

Q: Which Potency does the source give for `COc1ccc(-n2c(=O)c3c4c(sc3n3c(=S)[nH]nc23)CCC4)cc1` here?
A: Its Potency is active: 2.51 µM.

Q: With `O=C(Cn1cccc1C(=O)c1ccccc1)NCCc1ccccc1` as the compound, how does the Potency read?
A: Its Potency is “inactive”.

Q: `Cn1c(CO)cnc1S(=O)(=O)Cc1c(Cl)cccc1Cl` was tested. Which Potency did it give?
A: Its Potency is inconclusive: 70.8 µM [inhibitor, partial curve].

Q: Which Potency does the source give for `c1ccc2c(c1)NCC1CCCN21` (stereo not drawn) here?
A: Its Potency is active: 2.24 µM.

Q: `CC(C)CC(=O)NC(=S)Nc1ccc(NC(=O)c2ccco2)cc1` was tested. Which Potency did it give?
A: The Potency was inconclusive: 89.1 µM [inhibitor, single point].

Q: `CC(C)n1c(=S)[nH]c2cc(C(F)(F)F)ccc21` was tested. Which Potency did it give?
A: Its Potency is inconclusive: 44.7 µM [inhibitor, partial curve].

Q: `Cc1c(-c2ccccc2)nc2ccccc2c1C(=O)O` was tested. Which Potency did it give?
A: Its Potency is “inactive”.

Q: For `CC1=CC2CC1C1C(=O)N(c3ccc(S(=O)(=O)Nc4nc(C)cc(C)n4)cc3)C(=O)C21` (stereo not drawn), which Potency is on record?
A: Its Potency is inconclusive: 1.26 µM [inhibitor, full curve].
